In all, about 33,000 sequences were measured (“E-score (-0.5 to 0.5)”: median about -0.011, highest 2% from about 0.28 on). The list shows a part of the results.
Target: T1, Gcr1 (UniProt P07261)
T1 sequence: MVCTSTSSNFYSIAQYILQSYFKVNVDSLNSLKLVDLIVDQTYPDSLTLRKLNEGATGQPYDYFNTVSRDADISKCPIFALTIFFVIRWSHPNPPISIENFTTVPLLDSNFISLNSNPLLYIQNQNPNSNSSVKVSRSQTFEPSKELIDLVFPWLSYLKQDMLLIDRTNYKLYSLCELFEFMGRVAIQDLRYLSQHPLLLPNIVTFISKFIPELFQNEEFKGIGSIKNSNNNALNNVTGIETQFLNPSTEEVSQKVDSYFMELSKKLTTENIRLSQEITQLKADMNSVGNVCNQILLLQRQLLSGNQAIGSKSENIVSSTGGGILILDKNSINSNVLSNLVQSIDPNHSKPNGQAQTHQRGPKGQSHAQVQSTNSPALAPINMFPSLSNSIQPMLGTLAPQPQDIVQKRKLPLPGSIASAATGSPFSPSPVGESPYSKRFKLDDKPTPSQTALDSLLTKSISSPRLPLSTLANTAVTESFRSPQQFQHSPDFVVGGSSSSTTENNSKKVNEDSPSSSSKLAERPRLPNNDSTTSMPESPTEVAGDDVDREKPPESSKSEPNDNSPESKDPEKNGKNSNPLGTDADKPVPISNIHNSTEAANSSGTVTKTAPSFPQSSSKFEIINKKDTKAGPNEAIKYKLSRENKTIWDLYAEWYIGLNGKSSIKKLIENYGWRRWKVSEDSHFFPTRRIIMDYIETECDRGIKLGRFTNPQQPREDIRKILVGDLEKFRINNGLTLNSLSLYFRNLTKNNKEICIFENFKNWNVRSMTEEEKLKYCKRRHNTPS
Assay: PBM E-score (8-mer binding enrichment) (E-score (-0.5 to 0.5)); higher = stronger / more preferred TF binding; most listed sequences are background and not binding sites
Settings: protein concentration: 100 nM; construct: GST-full length
In short: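 E-scores (a modified Wilcoxon-Mann-Whitney statistic) were assigned by the Universal PBM Analysis Suite to every ungapped eight-base word pooled with its reverse complement. The input came from universal all-10-mer Agilent arrays made double-stranded by primer extension and probed with GST-tagged yeast transcription factors at about 100-200 nM. Fluorescent anti-GST detected bound protein, and masliner normalised the scans.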

Row | Sequence | PBM E-score
1 | CTCCGTAC | -0.111
2 | AGTCATGA | -0.128
3 | GCGACTTA | 0.165
4 | ACACGCTA | -0.198
5 | AATAATAC | 0.146
6 | CCTGTCTC | 0.124
7 | AAGTGCAC | -0.107
8 | ACGCCGGG | -0.0339
9 | AGATCATG | -0.118
10 | ACCCAGCT | -0.0549
11 | AGGTCACC | 0.0121
12 | CAATGTAG | -0.171
13 | GACGTAGA | -0.0244
14 | AGCCAGAG | 0.124
15 | GCCAATCA | 0.0668
16 | GAGGCAGC | 0.147
17 | GAGTTGGA | 0.0545
18 | GACATCCA | 0.156
19 | GTAGGTCA | -0.348
20 | CGGTGGTA | -0.142
21 | ACACTCGC | 0.0484
22 | ACAGAGAC | 0.0515
23 | CGCTAAGC | 0.0421
24 | AGGACTGA | -0.184
25 | AGTCATTA | -0.157

Row | Sequence | PBM E-score
26 | AAACCACG | -0.157
27 | CCCGAGAC | 0.0132
28 | GAAATTGC | 0.153
29 | GGTTACAC | -0.0711
30 | CATATCGC | -0.0927
31 | GGGGGAAC | -0.0945
32 | ACCTGCAC | 0.0483
33 | ATCAGATG | 0.0846
34 | GAACCCAA | 0.167
35 | CCTCCCTC | -0.0542
36 | GCAACTCC | -0.168
37 | ATTTGACG | 0.0163
38 | GTATGGGA | 0.0945
39 | AATGCGGC | 0.0925
40 | CGTGATAC | -0.0738
41 | GGATCTCA | -0.0912
42 | TGCACCCA | 0.151
43 | CAACGTGG | -0.0818
44 | CCAACCCC | -0.00845
45 | ACCATTAC | 0.127
46 | AGGTAGAC | -0.0661
47 | ATAGGGTC | -0.162
48 | GACTTCTC | 0.0467
49 | CATTGTCA | 0.0155
50 | CGAAAGCA | -0.149

Row | Sequence | PBM E-score
51 | GTGTACCA | -0.195
52 | CCAGGACC | -0.184
53 | CTCGCGTA | -0.0874
54 | GATGTGGC | 0.0493
55 | TATATCGA | -0.0192
56 | GAGCGGAC | 0.0999
57 | ATTCACTA | 0.0838
58 | AACCTCCG | -0.2
59 | TGAAACAA | 0.0585
60 | TACGCAGA | 0.0408
61 | ATCTGGGG | 0.0657
62 | TAGTATAA | -0.0308
63 | GCGTCCCA | 0.282
64 | AAAGCCCT | -0.146
65 | CGTAAGAC | -0.135
66 | CTAACGAC | -0.0103
67 | GGTTTAGA | -0.0707
68 | AAGATCCG | 0.0638
69 | ACTGTGCC | -0.157
70 | CCCTGAGA | 0.00198
71 | CCAACGTA | -0.0537
72 | ATCCATGC | -0.236
73 | GGACAACC | -0.0755
74 | CGAGGCCC | -0.0839
75 | ATACGGCA | 0.0373

Row | Sequence | PBM E-score
76 | ACGTGTAT | 0.0211
77 | AACACTAG | -0.0185
78 | ATATCAAT | 0.0526
79 | ACATCTGA | -0.221
80 | GCGATACA | 0.108
81 | ATGGCCCC | 0.0919
82 | CGAAGTAA | -0.0367
83 | CTAGATAA | 0.114
84 | ATCCTCTG | -0.0428
85 | AATTGCAT | -0.0597
86 | CCGCGCTA | -0.0123
87 | GTTCCATA | 0.174
88 | CAGCAAGG | -0.068
89 | GAGGAAGA | 0.171
90 | ACAAATGT | -0.0607
91 | AGGGATGA | -0.261
92 | CAGTGGCA | 0.155
93 | CAGAATTA | 0.191
94 | ATGAGTTA | -0.164
95 | AAATTTCC | -0.0261
96 | AGTAGGAT | 0.0978
97 | AGCTGCAT | -0.077
98 | CACCTACG | -0.0805
99 | ATACTAGA | 0.0992
100 | CGCGGGTA | -0.0289

Row | Sequence | PBM E-score
101 | AACGACTG | -0.128
102 | TTCCAAAA | 0.273
103 | ACGTCCCC | -0.0668
104 | AGTGTGAC | -0.234
105 | ATAGTCGG | 0.134
106 | GGCGCGGA | -0.0104
107 | CAGTAGGG | 0.203
108 | ACAGTAGA | 0.129
109 | AGGGTACG | -0.126
110 | ATCCTAGA | 0.125
111 | CAGGCTTC | 0.213
112 | AATTAGTC | 0.0909
113 | AATCCCCT | -0.0465
114 | GCCCAACA | -0.0925
115 | CAGTACAG | -0.0832
116 | AGCTGATG | -0.153
117 | CCGGACTC | -0.0713
118 | CAGTGCGA | 0.0683
119 | CCGAAGCC | 0.136
120 | GTCTCAAC | -0.0511
121 | AGTCCGAT | -0.112
122 | AATCACAA | 0.0103
123 | AAGGGCAT | -0.101
124 | ATTGAGAG | -0.0154
125 | AGCGGTAC | -0.126

Row | Sequence | PBM E-score
126 | AAAGGATA | 0.152
127 | GATTATAA | 0.108
128 | ACTGGTCA | -0.079
129 | GCCGGTCC | -0.0849
130 | GCAGAGAA | -0.0151
131 | AATGGAAA | 0.123
132 | CCGGGGAA | 0.0357
133 | CGCGAGCC | -0.189
134 | CGGCTCAC | -0.0993
135 | GTTTACCA | -0.022
136 | ATCGATAG | -0.102
137 | CATCTTAG | 0.171
138 | ACGCGACA | 0.0601
139 | GCACTTTA | 0.109
140 | ATCTCGGG | 0.0258
141 | GCAGACCA | -0.295
142 | ACTCCTGC | -0.116
143 | AAGCAGAG | -0.11
144 | GCGTGGTA | -0.119
145 | ACGAGGAA | -0.0503
146 | ACGCGACT | -0.087
147 | GAATAAAC | 0.0663
148 | ATGCCAAT | 0.0573
149 | AGCGTCCC | 0.347
150 | ATCACCTC | -0.0869

Row | Sequence | PBM E-score
151 | GTAGGGGA | 0.0193
152 | ATTGGAGG | -0.121
153 | GCGCGTCA | -0.142
154 | CCGTCTCA | -0.0463
155 | ACTAGCTC | -0.0664
156 | CATGAAGG | -0.0414
157 | AATTTATA | 0.181
158 | AGCAAGTG | -0.152
159 | CATTCGGG | 0.0638
160 | CAATACGG | -0.0061
161 | CCGTCGCA | -0.108
162 | AAGGCCTT | -0.343
163 | CTTGTTAC | -0.121
164 | ATGGTTAA | -0.0581
165 | GCATCCAA | 0.366
166 | CGACTACC | -0.0379
167 | ATGCGACC | 0.00481
168 | GACTAACA | 0.0577
169 | CCTCTGTA | 0.103
170 | AGCAGACC | 0.107
171 | AAGTCGTG | 0.0312
172 | ACCGGTCC | -0.0748

Source: the supplement of paper PMC3334620
